Reference: the supplement of paper PMC11060735
Values joined by “and” are separate entries in the source; they are usually repeats but may differ in a detail not shown here. Identical values can stand only once. Counter-ions that a name gives are not always drawn. About 50 (3%) of roughly 1,800 compounds showed activity. Some of the results follow.

Test system: mouse p16Ink4a+/- lung fibroblasts (INKBRITE, bleomycin-injured)
Test: percentage of GFP+ (p16Ink4a+) fibroblasts among all cells in well; higher = less depletion of p16Ink4a+ cells, active = 20 or less
Conditions: 1 µM; 3 days
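Note: fibroblasts sorted 14 days after bleomycin, GFP+ and GFP− mixed 1:1 in 384-well plates (GFP− as in-well control), imaged after Hoechst and NucView530 staining, reference wells lacked compound.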

Structure (SMILES)	percentage of GFP+
CC(C)[C@H](N)C(=O)OCCOCn1cnc2c(O)nc(N)nc21 [Valaciclovir]	inactive: 42.1%
CC(C)(C)C(=O)OCOP(=O)(COCCn1cnc2c(N)ncnc21)OCOC(=O)C(C)(C)C [Adefovir Dipivoxil]	active: 19.4%
CCCNC(C)C(=O)Nc1ccccc1C (configuration not stated) [Prilocaine]	inactive: 38.4%
C[C@]12CC[C@@H]3c4ccc(O)cc4CC[C@H]3[C@@H]1CCC2=O [Estrone]	inactive: 43.9%
O=NO [Sodium Nitrite]	inactive: 52.2%
CC1CCc2c(N3CCC(O)CC3)c(F)cc3c(=O)c(C(=O)O)cn1c23 (configuration not stated) [Nadifloxacin]	inactive: 30.8%
C[N+]1(C)CCC(=C(c2ccccc2)c2ccccc2)CC1 [Diphemanil Methylsulfate]	inactive: 44.6%
CCCN[C@H]1CCc2nc(N)sc2C1 [Pramipexole]	inactive: 53.7%
CNC(=O)c1ccccc1Nc1nc(Nc2ccc(N3CCOCC3)cc2OC)ncc1Cl	inactive: 33.8%
N#Cc1ccc2[nH]c(O)c(-c3ccc(CN4CCOCC4)cn3)c2c1	inactive: 40.8%
CCn1cc(C(=O)O)c(=O)c2ccc(C)nc21 [Nalidixic Acid]	inactive: 43.7%
CCC(=O)OCC(=O)[C@@]1(OC(=O)CC)[C@@H](C)C[C@H]2[C@@H]3CCC4=CC(=O)C=C[C@]4(C)[C@@]3(Cl)[C@@H](O)C[C@@]21C [Beclomethasone Dipropionate]	inactive: 24.3%
CN1C(C(=O)Nc2ccccn2)=C(O)c2sc(Cl)cc2S1(=O)=O [Lornoxicam]	inactive: 49.7%
C[C@@H](O[C@H]1OCCN(Cc2n[nH]c(O)n2)[C@H]1c1ccc(F)cc1)c1cc(C(F)(F)F)cc(C(F)(F)F)c1 [Aprepitant]	inactive: 43.6%
C[C@H]1C[C@H]2[C@@H]3CCC4=CC(=O)C=C[C@]4(C)[C@@]3(F)[C@@H](O)C[C@]2(C)[C@@]1(O)C(=O)CO [Betamethasone]	inactive: 33%
Oc1ccc(OCc2ccccc2)cc1 [Monobenzone]	inactive: 52.5%
Cn1c(=O)c(F)c(Nc2ccc(I)cc2F)c2c(=O)n(C[C@@H](O)CO)cnc21	inactive: 28.4%
Cc1cccc(N(C)C(=S)Oc2ccc3ccccc3c2)c1 [Tolnaftate]	inactive: 45.1%
C[C@H](NCc1ccc(OCc2cccc(F)c2)cc1)C(N)=O [Safinamide]	inactive: 47.4%
CCCCCCNC(=O)n1cc(F)c(=O)[nH]c1=O [Carmofur]	inactive: 35%
O=C1NCCc2[nH]c(-c3ccncc3)cc21	inactive: 39.1%
C[C@@]1(c2cc(-c3cncnc3)c(F)cc2F)CCSC(N)=N1	inactive: 36.4%
Nc1nc(N)c2nc(-c3ccccc3)c(N)nc2n1 [Triamterene]	inactive: 46.4%
O=C(/C=C/c1ccc(O)cc1)c1ccc(O)cc1O [Isoliquiritigenin]	inactive: 45.5%

Structure (SMILES)	percentage of GFP+
Cc1[nH]c(/C=C2\C(=O)Nc3ccccc32)c(C)c1CCC(=O)O [Orantinib]	inactive: 47.6%
COC1CCN(C(=O)c2cc(Cc3nnc(O)c4ccccc34)ccc2F)CC1	inactive: 41.9%
COc1cc(OC)c(/C=C/S(=O)(=O)Cc2ccc(OC)c(NCC(=O)O)c2)c(OC)c1 [Rigosertib]	inactive: 27.9%
C/C(=N\NC(=S)N1CCC1)c1ccccn1	active: 6.13%
Cc1oncc1C(=O)Nc1ccc(C(F)(F)F)cc1 [Lefunamide, Leflunomide]	inactive: 39.1%
C[C@@H]1C[C@H]2[C@@H]3CCC4=CC(=O)C=C[C@]4(C)[C@@]3(F)[C@@H](O)C[C@]2(C)[C@@]1(O)C(=O)CO [Dexamethasone]	inactive: 30.5%
CCC(=O)Nc1cccc(Oc2nc(Nc3ccc(N4CCN(C)CC4)cc3OC)ncc2Cl)c1	inactive: 42.3%
COc1cc(OC2CCN(C)CC2)ccc1Nc1ncc2c(n1)n(C1CCCC1)c(=O)n2C	inactive: 44.1%
CC(=O)O/N=C1/C(=O)N(Cc2cc(Cl)ccc2Cl)c2ccc(Cl)cc21	inactive: 51.6%
CCCc1cc(O)nc(S)n1 [Propylthiouracil]	inactive: 36.4%
C[C@]12CC[C@@H]3c4ccc(O)cc4C[C@@H](CCCCCCCCCS(=O)CCCC(F)(F)C(F)(F)F)[C@H]3[C@@H]1CC[C@@H]2O (some centres not stated) [Fulvestrant]	inactive: 36.9%
Cc1ccc(S(=O)(=O)Nc2nc3ccccc3nc2Nc2ccc3nsnc3c2)cc1	inactive: 43.7%
O=C(O)c1ccc(-n2nc(-c3ccccc3O)nc2-c2ccccc2O)cc1 [Deferasirox]	inactive: 39.3%
O=c1[nH]c(=O)n([C@H]2C[C@H](O)[C@@H](CO)O2)cc1C(F)(F)F [Trifluridine]	inactive: 46.9%
O=C(NC1CCNCC1)c1n[nH]cc1NC(=O)c1c(Cl)cccc1Cl	inactive: 35%
CC(=O)O[C@]1(C(C)=O)CC[C@H]2[C@@H]3C=C(Cl)C4=CC(=O)[C@@H]5C[C@@H]5[C@]4(C)[C@H]3CC[C@@]21C [Cyproterone Acetate]	inactive: 35%
N[C@H]1CN(c2c(F)cc3c(=O)c(C(=O)O)cn([C@@H]4C[C@@H]4F)c3c2Cl)CC12CC2 [Sitafloxacin Hydrate]	inactive: 27.4%
CN(NC(=O)CC(=O)NN(C)C(=S)c1ccccc1)C(=S)c1ccccc1 [Elesclomol]	active: 12%
CNC(=O)c1cccc(-c2ccc3c(N4CCOC[C@@H]4C)nc(N4CCOC[C@@H]4C)nc3n2)c1	inactive: 34.7%
Sc1ncnc2[nH]cnc12 [Mercaptopurine]	inactive: 44.9%
Cc1nnc(NS(=O)(=O)c2ccc(N)cc2)s1 [Sulfamethizole]	inactive: 44.8%
C[C@H]1O[C@H](O[C@H]2[C@H](O)[C@@H](O)[C@@H](O[C@H]3[C@H](O)[C@@H](O)[C@H](O)O[C@@H]3CO)O[C@@H]2CO)[C@H](O)[C@@H](O)[C@@H]1N[C@H]1C=C(CO)[C@@H](O)[C@H](O)[C@H]1O [Acarbose]	inactive: 44.8%
CN(Cc1ccc(C(C)(C)C)cc1)Cc1cccc2ccccc12 [Butenafine]	inactive: 51.2%
C#C[C@]1(O)CC[C@H]2[C@@H]3CCc4cc(OC)ccc4[C@H]3CC[C@@]21C [Mestranol]	inactive: 38.6%

Structure (SMILES)	percentage of GFP+
CCOCC(O)COc1ccc(NC(=O)CC[S+](C)C)cc1 (configuration not stated) [Suplatast Tosylate]	inactive: 45.9%
CCOC(=O)n1ccn(C)c1=S [Carbimazole]	inactive: 43.4%
COc1ccc(C(C)=O)c(O)c1 [Paeonol]	inactive: 40.3%
CC(C)C[C@@H](C=O)NC(=O)[C@H](CC(C)C)NC(=O)[C@H](CC(C)C)NC(=O)OCc1ccccc1	active: 7.69%
CCC(=O)c1c(O)cc(O)cc1O [Flopropione]	inactive: 40.7%
N=C(N)c1ccc(OCCCCCOc2ccc(C(=N)N)cc2)cc1 [Pentamidine]	inactive: 54%
COc1ccc(CNc2nc(N3CCC[C@H]3CO)ncc2C(=O)NCc2ncccn2)cc1Cl [Avanafil]	inactive: 46.5%
NC1(C(=O)N[C@@H](CCO)c2ccc(Cl)cc2)CCN(c2ncnc3[nH]ccc23)CC1	inactive: 44.2%
O=C(COc1cccc2c(O)nccc12)c1ccccc1	inactive: 50.6%
Clc1ccc(COC(Cn2ccnc2)c2ccc(Cl)cc2Cl)c(Cl)c1 (configuration not stated) [Miconazole]	inactive: 31.6% and inactive: 35.8%
COc1cc2ncnc(Nc3ccc(F)c(Cl)c3)c2cc1NC(=O)/C=C/CN1CCCCC1 [Dacomitinib]	inactive: 53.1%
Cc1ccc([N+](=O)[O-])cc1S(=O)(=O)N(C)/N=C/c1cnc2ccc(Br)cn12	active: 3.79%
CC(C)Cn1cnc2c(N)nc3ccccc3c21 [Imiquimod]	inactive: 39.1%
O=C(O)C1=CO[C@@H](O[C@@H]2O[C@H](CO)[C@@H](O)[C@H](O)[C@H]2O)[C@@H]2C(CO)=CC[C@H]12 [Geniposidic acid]	inactive: 39.1%
COc1ccccc1N1CCN(CC(O)COc2cccc3ccccc23)CC1 (configuration not stated) [Naftopidil Dihydrochloride, Naftopidil]	inactive: 45.6% and inactive: 46.7%
CN1CC[C@H](c2c(O)cc(O)c3c(=O)cc(-c4ccccc4Cl)oc23)[C@H](O)C1 [Flavopiridol]	active: 4.28%
COc1cc2c(Oc3ccc4[nH]c(C)cc4c3F)ncnc2cc1OCCCN1CCCC1	inactive: 41.3%
Nc1nc(O)ncc1F [Flucytosine, 5-fluorocytosine]	inactive: 43.2%
O=C1[C@H](Cc2ccc(O)cc2)N2C(=O)CCN(C(=O)NCc3ccccc3)[C@H]2CN1Cc1cccc2ccccc12	inactive: 53.9%
Cc1csc(-c2nnc(Nc3ccc(Oc4ncccc4-c4ccnc(N)n4)cc3)c3ccccc23)c1	inactive: 35.6%
CNC(=O)c1ccc(N2C(=S)N(c3ccc(C#N)c(C(F)(F)F)c3)C(=O)C2(C)C)cc1F [Enzalutamide]	inactive: 37.1%
CN1CCC(=C2c3ccccc3CC(=O)c3sccc32)CC1 [Ketotifen]	inactive: 48.3%
CN1CCN(c2ccc3[nH]c(-c4c(O)nc5cccc(F)c5c4N)nc3c2)CC1 [Dovitinib]	inactive: 25.7% and inactive: 32.6%
Nc1nc(=O)n([C@@H]2CS[C@H](CO)O2)cc1F [Emtricitabine]	inactive: 44%
